The other results are listed elsewhere or left out.
Target: T1, OsWOX13 (Oryza sativa, UniProt Q5QMM3 1-267)
T1 sequence: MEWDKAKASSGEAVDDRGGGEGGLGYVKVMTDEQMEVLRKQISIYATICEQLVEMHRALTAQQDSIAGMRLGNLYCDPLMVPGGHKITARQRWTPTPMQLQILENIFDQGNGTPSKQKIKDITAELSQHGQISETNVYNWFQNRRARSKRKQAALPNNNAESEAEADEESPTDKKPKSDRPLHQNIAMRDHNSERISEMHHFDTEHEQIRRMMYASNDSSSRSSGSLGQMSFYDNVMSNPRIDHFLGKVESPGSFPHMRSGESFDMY
Assay: protein-binding microarray (RPBM); PBS, 2% BSA, 51.3 ng/ul salmon testes DNA, 50 uM zinc acetate, 200 nM TF, 25 C, 1 h; high values mean tight binding
Conditions: protein: recombinant; tags: N-terminal polyhistidine and DsRed monomer fusion (pET32a); label: CyDye5-dUTP incorporated in the synthesized complementary strand; 3' TTTTT single-stranded linker to array surface; dsDNA, one strand shown
How it was run: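 In PBS with 2% BSA, salmon testes DNA and 50 µM zinc acetate, 200 nM protein was incubated on a custom Agilent array at 25 °C for 1 h and then washed off. The array had been made double-stranded by primer extension with Cy5-dUTP and blocked with 2% BSA. The proteins were transcription factors fused N-terminally to polyhistidine and DsRed, expressed in E. coli BL21-CodonPlus and purified on Ni–NTA. The binding signal is per-feature fluorescence intensity (arbitrary units) from an Axon 4000B scanner.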

| Sequence | binding signal |
| --- | --- |
| CATTCATTAATTAAACTAATTAATCAGAAGTTAATTGAGACGGAGTCACCTAGTGCAG | 47600 fluorescence intensity (a.u.) |
| ACAAAATTGATTCATCGAGACTCCTGCTTTGCTCGTATTCCGGAGTCACCTAGTGCAG | 28000 fluorescence intensity (a.u.) |
| ACGAGGGATCAATCAGAATTTAGTCACGCACCCAGGAACACGGAGTCACCTAGTGCAG | 6960 fluorescence intensity (a.u.) |
| TGCCGAGATTTAATCAACTACTATTAGGTATGTGGTATCTCGGAGTCACCTAGTGCAG | 4800 fluorescence intensity (a.u.) |
| AGGATTGTGTAATGGAACAAGATTGATAATAACAAATTTACGGAGTCACCTAGTGCAG | 25200 fluorescence intensity (a.u.) |
| AGTTGTACTTGTTTATTATTAATTACAATTGTGAGACTAACGGAGTCACCTAGTGCAG | 4490 fluorescence intensity (a.u.) |
| CAGCACAGTTAAATTGGGACTTTTGTATTCCTAGTTTACACGGAGTCACCTAGTGCAG | 3640 fluorescence intensity (a.u.) |
| GAGATATAATTGATTAGAGTTACTTTCAATCTTTTCCGTGCGGAGTCACCTAGTGCAG | 62000 fluorescence intensity (a.u.) |
| TACTTTTAAATTTATGTTTTATTGTTCAGGTTCTCAAATTCGGAGTCACCTAGTGCAG | 5580 fluorescence intensity (a.u.) |
| TTGATTTATGACTCCATATTTTACTGAAATGGAAGCATGGCGGAGTCACCTAGTGCAG | 15700 fluorescence intensity (a.u.) |
| CTTTAATGTTGATATACCATAGTTTTGATGCTTGATGTGCCGGAGTCACCTAGTGCAG | 4230 fluorescence intensity (a.u.) |
| TTCCCATTTCTTGGAAGATTGGCCAATAACTAGTAACATTCGGAGTCACCTAGTGCAG | 5230 fluorescence intensity (a.u.) |
| GGGCATAAATTTTGGTGATTTTCGGTTTTCTGAAGTTCCTCGGAGTCACCTAGTGCAG | 7130 fluorescence intensity (a.u.) |
| CGCTCAATCAATCTGTACATGCTACCATGCTAGTTTCACCCGGAGTCACCTAGTGCAG | 22800 fluorescence intensity (a.u.) |
| ATCTCTATAATAGACAAACTCATAAGATGAAAATTCTCGACGGAGTCACCTAGTGCAG | 4180 fluorescence intensity (a.u.) |
| GAACAGACAGATTGATGCCCATGTTACCATGGTGGTGTCTCGGAGTCACCTAGTGCAG | 36000 fluorescence intensity (a.u.) |
| ACGATGTGACAAATCGTTAATTGAGTGGCAAATAGTTAAACGGAGTCACCTAGTGCAG | 10400 fluorescence intensity (a.u.) |
| TATAATTTCCGTAATTCTCCGTATATAGAACAGTTGTAAGCGGAGTCACCTAGTGCAG | 8920 fluorescence intensity (a.u.) |
| TGAGATGATTTGGGCGTCCGTGGCTCGGTGGCGGCTACGTCGGAGTCACCTAGTGCAG | 5930 fluorescence intensity (a.u.) |
| ATGGTCACCTAAAATCAATTAAATTACGTGTGTATGCTGCCGGAGTCACCTAGTGCAG | 7340 fluorescence intensity (a.u.) |
| ATGAAAATTTGACGGGAATATAGTATTATGGTATAGTAAGCGGAGTCACCTAGTGCAG | 3510 fluorescence intensity (a.u.) |
| ATTGATATTAATGAATCTAGACATATATATCTATTTAGATCGGAGTCACCTAGTGCAG | 3960 fluorescence intensity (a.u.) |
| TCAAATAATTGATAGCACCAAAATTTATCTATATTTTGACCGGAGTCACCTAGTGCAG | 47300 fluorescence intensity (a.u.) |
